Data on 47 compounds can be found in PubChem BioAssay AID1963576 (National Center for Advancing Translational Sciences (NCATS), 2024).

Hit rate of the full screen: of about 46,000 compounds, about 60 (0.1%) were called active. Not shown: some 3% with an inconclusive outcome. Calls come from the whole dose curve; as a rule, active = well fitted inhibition curve with a large enough effect; inconclusive = small, poorly fitted or top-dose-only effect; inactive = no such curve, though single readings can be large or run the other way. Some of the results follow.

The nature of the assay: Primary qHTS assay for Inhibitors of ovarian cancer metastasis using an organotypic tumor microenvironment (TME) model.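 For activity change, negative = inhibition: plate controls were DMSO wells for no effect and tomatine positive control wells for full effect.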 Note: nearly all actives have a fitted effect of over 65% in size. Particulars: SKOV3ip1-GFP adhesion/invasion on 3D omental model, fluorescence; series mostly up to 45.8 µM; activity change, negative = inhibition: at the top concentration. In short, it runs like this: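 qHTS, 4-pt dose (0.36-46 umol/L); SKOV3ip1-GFP, 1,200 cells/well, no FBS; primary omental fibroblast/mesothelial co-culture 48 h pre-grown; 2 h RT + 16 h 37 C; PBS wash, 4% PFA; GFP count 488/509 nm.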
A general note: Quantitative high-throughput screening tests each substance at several concentrations.
Regarding `COc1cccc(-c2cc(C(=O)Nc3ccc4c(c3)OCO4)no2)c1`, the compound was classed as inactive.

For the compound `COc1ccc(-c2cc3nc(C)c(CCC(=O)Nc4ccc(F)cc4F)c(C)n3n2)c(OC)c1`, the call was inactive.

For the compound `Cc1ccc(Oc2nc3c(c(=O)n(Cc4ccccc4Cl)c(=O)n3C)n2C)cc1C`, the “activity change, negative = inhibition” value was inactive: -0.922%.

As to `Cc1ccccc1C(=O)Nc1cccc(-c2cn3cccnc3n2)c1`, the “activity change, negative = inhibition” value is inactive: 4.54%.

As to `COc1ccc(C(=O)Nc2nnc(S(=O)(=O)N3CCN(c4ccc(C)cc4)CC3)s2)cc1`, the “activity change, negative = inhibition” value was inactive: 8.52%.

Take `CC(Oc1ccccc1)C(=O)Nc1nnc(S(=O)(=O)N2CCCCCC2)s1` (configuration not stated): the “activity change, negative = inhibition” value is inactive: 3.02%.

Regarding `COc1ccc(/C=C/C(=O)N2CCC(c3nc4ccccc4o3)CC2)cc1`, the compound was classed as inactive.

`COc1ccc(NC(=O)CSc2ccc(-c3cccs3)nn2)cc1`: the outcome was inactive.

Consider `COC(=O)c1ccc(NC(=O)N2CCC(CN3CCc4ccccc4C3)CC2)cc1`, for which the “activity change, negative = inhibition” value was inactive: -4.76%.

As for `CCOc1ccc(C(=O)Nc2ccc(C(=O)OCc3cc(=O)n4nc(CC)sc4n3)cc2)cc1`, the “activity change, negative = inhibition” value is inactive: 8.61%.

With `CCOc1ccc(-c2c(C)nn3c(-c4ccccc4)c(C(=O)NCCOC)cnc23)cc1OCC`, the “activity change, negative = inhibition” value is inactive: -1.62%.

With `O=C(COc1ccc2oc3c(c2c1)CCCC3)Nc1ccc(Cl)cc1`, the “activity change, negative = inhibition” value was inactive: -1.19%.

Consider `COc1cccc(C(=O)Nc2cc(-c3ccccc3)nn2-c2ccccc2)c1`, for which the “activity change, negative = inhibition” value is inactive: -6.56%.

In the case of `Cc1ccc(S(=O)(=O)N2CCCc3cc(NC(=O)c4ccc(F)c(F)c4)ccc32)cc1`, the “activity change, negative = inhibition” value was inactive: -0.82%.

Turning to `CCOC(=O)c1ccc(NS(=O)(=O)c2cn(C)c(C)n2)cc1`, the “activity change, negative = inhibition” value was inactive: 33.8%.

For `CCS(=O)(=O)c1nc(S(=O)(=O)c2ccc(C)cc2)c(NCc2ccc(Cl)cc2)s1`, the “activity change, negative = inhibition” value was inactive: -8.79%.

As to `CN(C)C(=O)COC(=O)Cc1ccc(OC(=O)c2ccc(N=C(N)N)cc2)cc1`, the “activity change, negative = inhibition” value is inactive: 8.03%.

Turning to `CCOc1ccc(N(CC)S(=O)(=O)N2CCCC(C(=O)Nc3ccc(NC(C)=O)cc3)C2)cc1` (configuration not stated), the “activity change, negative = inhibition” value is inactive: -29.8%.

As for `O=C1C2=C(Nc3ccccc3SC2c2ccc(Cl)c(Cl)c2)c2ccccc21` (configuration not stated), the “activity change, negative = inhibition” value is inactive: -24.9%.

Consider `COc1cccc(NC(=O)CN2C(=O)COc3ccc(S(=O)(=O)N4CCCCCC4)cc32)c1`, for which the call was inactive.

For the compound `COC(=O)Cc1c(C)c2cc3c(c(C)c2oc1=O)OCN(CCc1ccc(F)cc1)C3`, the result was inactive.

For the compound `CCc1ccc(NC(=O)CC2C(=O)N(c3ccc(C)cc3)C(=O)N2CCc2ccncc2)cc1` (configuration not stated), the result was inactive.

For the compound `COc1cccc(N2C(=O)C(CC(=O)Nc3ccc(F)cc3)N(CCC3=CCCCC3)C2=O)c1` (configuration not stated), the “activity change, negative = inhibition” value was inactive: -13.1%.

As to `COc1ccc(NC(=O)N(C(C)C)C2CCN(C(C)=O)CC2)c(OC)c1`, the “activity change, negative = inhibition” value was inactive: -4.41%.

As for `Cc1ccc(CCNC(=O)c2cc3cc4cc(C)ccc4nc3s2)cc1`, the “activity change, negative = inhibition” value was inactive: -10.9%.

For the compound `COc1ccccc1Cn1c(CNS(=O)(=O)c2ccc(CC(C)C)cc2)nc2cccnc21`, the “activity change, negative = inhibition” value was inactive: 2.62%.

On to `CN(C)S(=O)(=O)N1CCC(n2cnc3cccnc32)CC1`, for which the “activity change, negative = inhibition” value is inactive: -3.8%.

For `CCOc1ccc(NC(=O)Cn2cc(C(=O)c3ccc(OCC)cc3)c(=O)c3cc4c(cc32)OCCO4)cc1`, the “activity change, negative = inhibition” value is inactive: -25.8%.

For `CC(=O)N1CCCc2cc(S(=O)(=O)N3CCCC(C(=O)NCc4ccccc4)C3)ccc21` (configuration not stated), the “activity change, negative = inhibition” value was inactive: 14.1%.

For `Cc1cccc(NC(=O)CSc2cn(CC(=O)N3CCCC3)c3ccccc23)c1C`, the result was inactive.

Regarding `CCc1ccc(-c2cc(C)no2)cc1S(=O)(=O)Nc1ccc(Cl)cn1`, the “activity change, negative = inhibition” value was inactive: 9.05%.

Turning to `Cc1ccc(Cn2cc(C(=O)c3ccc(C)cc3)c(=O)c3ccc(C)nc32)cc1`, the outcome was inactive.

For `Cc1cc(SCC(=O)Nc2ccc(Cl)cc2)nc2ccccc12`, the outcome was inactive.

In the case of `COc1ccc(NC(=O)CN(C)S(=O)(=O)c2ccc(C(=O)N3CCOCC3)s2)cc1`, the result was inactive.

With `Nc1c(C(=O)NCc2ccc3c(c2)OCO3)nnn1CC(=O)Nc1ccc(Br)cc1`, the “activity change, negative = inhibition” value is inactive: 0.919%.

With `Cc1cccc(C)c1OCC(=O)N1CCC(c2nc3ccccc3o2)CC1`, the “activity change, negative = inhibition” value was inactive: -1.22%.

For the compound `Cc1cc(NC(=O)C2CCC(CNS(=O)(=O)c3ccc(Br)s3)CC2)ccc1Br` (configuration not stated), the “activity change, negative = inhibition” value was inactive: -2.73%.

On to `CCc1nn2c(-c3ccco3)ccnc2c1-c1ccccc1`, for which the result was inactive.

`N=c1nc(N2CCCCC2)cc(N)n1O`: the “activity change, negative = inhibition” value is inactive: 3.08%.

On to `Cc1cccc(N2CCN(C(=O)C3CCN(Cc4nc(-c5ccc(Cl)cc5)oc4C)CC3)CC2)c1C`, for which the “activity change, negative = inhibition” value is inactive: 0.716%.

Consider `COc1cc(OC)c(NC(=O)c2cc3c(s2)-c2ccc(Cl)cc2SC3)cc1Cl`, for which the “activity change, negative = inhibition” value is inactive: -10.3%.

On to `Cn1c(C(=O)NCc2ccc(F)cc2)cc2cc(S(=O)(=O)N3CCCCC3)ccc21`, for which the “activity change, negative = inhibition” value was inactive: -10.7%.

`COc1ccc(NC(=O)CSc2nc(-c3ccc(OC)cc3)cc(=O)[nH]2)cc1`: the “activity change, negative = inhibition” value was inactive: 3.45%.

For `CCC1CN(C(=O)N2CCC(C(=O)NCc3cc(OC)ccc3OC)CC2)c2ccccc2O1` (configuration not stated), the compound was called inactive.

For the compound `CCOC(=O)c1cc(S(=O)(=O)Nc2ccc(OC(F)(F)F)cc2)[nH]n1`, the “activity change, negative = inhibition” value was inactive: -3.22%.

As for `COc1ccccc1NC(=O)c1oc2ccccc2c1NC(=O)c1ccc(S(=O)(=O)N(C)C)cc1`, the “activity change, negative = inhibition” value was inactive: 1.51%.

As for `Cc1ccc(-n2nc(C(=O)NCCc3cccc(C)c3)c3c4ccccc4n(C)c3c2=O)cc1`, the “activity change, negative = inhibition” value was inactive: 1.81%.
